# Source: PubChem BioAssay AID1745845 (National Center for Advancing Translational Sciences (NCATS), 2022)
# Screen size: about 360,000 compounds; about 2,600 (0.72%) were called active. This list was built around the results that the source calls inconclusive (neither active nor inactive); the mix of calls is not that of the screen. Calls come from the whole dose curve; as a rule, active = well fitted inhibition curve with a large enough effect; inconclusive = small, poorly fitted or top-dose-only effect; inactive = no such curve, though single readings can be large or run the other way. Potencies beside an inconclusive call are fits to weak or partial responses and may not hold up.
# Experiment: Primary qHTS for Inhibitors of ATXN expression; note: nearly all actives have a fitted effect of over 55% in size
# Conditions: HEK-293 ATXN2-luciferase reporter, luminescence, 24 h; activity change, negative = inhibition: at 57 µM (top of the series)
# How it was run: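 ATXN2-luciferase reporter cells (luciferase flanked by upstream and downstream ATXN2 gene portions) were treated 24 h at 37 °C with compounds at up to 57 uM. SteadyGlo luminescence gave expression; GF-AFC fluorescence gave viability.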
# % is set by controls: 0 for no effect and ±100 for the full control effect; potency is the fitted concentration of half-maximal effect; tags give direction and shape of the fitted curve.
SMILES,Potency,"activity change, negative = inhibition"
COc1cc2cnc(-c3ccccc3)c(-c3ccc(C(F)(F)F)cc3)c2cc1OC,"inconclusive: 39.8 µM [inhibitor, single point]",
O=C(CCCCn1c(=O)c2ccccc2n(Cc2ccccc2F)c1=O)NCc1ccc2c(c1)OCO2,inactive,
CCC(=O)Nc1cc2[nH]c(=O)cc(C)c2cc1C,inactive,
CC(OC(=O)c1ccc(S(C)(=O)=O)c([N+](=O)[O-])c1)C(=O)NC1C2CC3CC(C2)CC1C3 (centres undefined),"inconclusive: 3.16 µM [inhibitor, partial curve, poor fit]",
O=C(O)COc1c(-c2ccc(Cl)cc2)oc2ccccc2c1=O,"inconclusive: 1.68 µM [inhibitor, full curve, poor fit]",
Cc1ccc(NC(=O)Cn2sc3ccccc3c2=O)cc1,"inconclusive: 39.8 µM [inhibitor, single point]",
CN(C)CCOC(c1ccccc1)c1ccc(Br)cc1 (centres undefined),"inconclusive: 31.6 µM [inhibitor, partial curve]",
CC1=C(C(=O)N2CCOCC2)CC(CC(=O)NCC2CCCCC2)C(=O)N1Cc1ccc(C(C)(C)C)cc1 (centres undefined),inactive,
CC(=O)c1cccc(OCc2cc(C(=O)NC3CCN(Cc4ccccc4)CC3)no2)c1,"inconclusive: 2.51 µM [inhibitor, partial curve]",
Cc1[nH]c2ccccc2c1CN1CCC(CO)(Cc2ccccc2)CC1,"inconclusive: 17.8 µM [inhibitor, partial curve, poor fit]",
COc1cccc(CN2CC(C(=O)NCCSc3nnnn3C)CCC2=O)c1 (centres undefined),inactive,
O=C(N/N=C/c1cc([N+](=O)[O-])ccc1O)C(O)(c1ccccc1)c1ccccc1,"inconclusive: 7.94 µM [inhibitor, single point]",
COC(=O)[C@]12CCCCC=C1N(CCC1=CCCCC1)C(=O)[C@H](CC(=O)N1CCN(C(=O)c3ccco3)CC1)C2,"inconclusive: 35.5 µM [inhibitor, single point]",
OCC(O)C1OC(c2ccccc2)OC(CO)C1O (centres undefined),inactive,
COc1ccc(-c2noc(CCC(=O)Nc3ccccc3Cl)n2)cc1OC,inactive,
Cn1c(-c2ccccc2)c(C(=O)CCl)c2ccccc21,"inconclusive: 6.7 µM [inhibitor, full curve, poor fit]",
Cc1ccccc1C(=O)NC(NC(=O)c1ccccc1C)c1cccc([N+](=O)[O-])c1,"inconclusive: 37.7 µM [inhibitor, single point]",
C[C@H](CO)N1C[C@H](C)[C@@H](CN(C)Cc2ccc3c(c2)OCO3)Oc2ccc(NC(=O)Cn3cnnn3)cc2C1=O,inactive,
O=C(Nc1ccc(N2CCOCC2)c(Cl)c1)c1c(F)c(F)c(F)c(F)c1F,active: 12.6 µM,
CCOC(=O)c1c(NC(=O)CN2CCN(c3ccc(Cl)cc3)CC2)sc(C)c1C,"inconclusive: 22.4 µM [inhibitor, partial curve, poor fit]",
CCOC(=O)N1CCN(c2nc(C(F)(F)F)nc3c(C)cc(C)cc23)CC1,inactive,
COc1ccccc1C1c2ccc3ccccc3c2Oc2ncn(CCCO)c(=N)c21 (centres undefined),inactive,
COc1ccc(-n2c(COc3ccccc3)n[nH]c2=S)cc1,inactive,

SMILES,Potency,"activity change, negative = inhibition"
COc1ccc(C(=O)N2N=C(c3cccs3)CC2c2ccccc2O)cc1 (centres undefined),inactive,
COc1cc(-c2coc3c(C(=O)NCc4ccc(OC)c(OC)c4)cccc23)ccc1O,"inconclusive: 22.4 µM [inhibitor, single point]",
O=C(Cc1cccc2ccccc12)N/N=C/c1ccc2cccc(O)c2n1,"inconclusive: 39.8 µM [inhibitor, single point]",
Cc1ccccc1C(=O)Nc1ccc2nc(SCC(=O)N(C)c3ccccc3)sc2c1,inactive,
COc1ccc(Cl)cc1NC(=O)c1c(NCc2cccs2)sc2c1CCC(C)C2 (centres undefined),"inconclusive: 20 µM [inhibitor, single point]",
CCN1C/C(=C/c2cccc([N+](=O)[O-])c2)C(=O)/C(=C/c2cccc([N+](=O)[O-])c2)C1,active: 3.16 µM,
Cc1[nH]c2ccccc2c1SCCNC(=O)c1ccc(F)cc1,"inconclusive: 22.4 µM [inhibitor, partial curve, poor fit]",
Cc1nc2ccc(NC(=O)c3ccc(Cl)c(S(=O)(=O)N(C)c4ccccc4)c3)cc2s1,"inconclusive: 42.3 µM [inhibitor, partial curve, poor fit]",
Cn1c(=O)nc2n(-c3ccc(Br)cc3)c3cccc(Cl)c3cc-2c1=O,inactive,
CCN(c1ccccc1)S(=O)(=O)c1ccc(C(=O)Nc2cc(C)ccn2)cc1,"inconclusive: 39.8 µM [inhibitor, partial curve, poor fit]",
CC(=O)c1ccc(OC(=O)c2c(-c3ccccc3Cl)noc2C)cc1,inactive,
Cc1cc(Cl)ccc1-c1nc(NCc2ccccc2)nc2ccsc12,inactive,
COc1ccc(NC(=O)c2ccc(Br)o2)cc1,inactive,
CCc1ccc(S(=O)(=O)Nc2cccc(C3OCCCO3)c2)cc1,,inactive: -3.14% [at 11.3 µM]
CCOC(=O)C1CCCN(C2=NC(=O)/C(=C/c3ccc(N(C)C)cc3)S2)C1 (centres undefined),inactive,
CCOc1ccc(-c2cn(-c3cccc(SC)c3)c(=O)[nH]2)cc1,inactive,
S=C(c1cn(Cc2ccc(Br)cc2)c2ccccc12)N1CCOCC1,inactive,
CN1CCN(c2ncnc3c2[nH]c2ccc(F)cc23)CC1,"inconclusive: 10 µM [inhibitor, partial curve, poor fit]",
Cc1c(N/N=C(\C#N)C(=O)c2ccc(Cl)cc2)c(=O)n(-c2ccccc2)n1C,active: 7.94 µM,
Cc1cc2[nH]c3ccccc3c2c(C)n1,"inconclusive: 22.4 µM [inhibitor, partial curve, poor fit]",
O=C1c2ccccc2C(Nc2ccc(-c3nc4ccccc4[nH]3)cc2)N1Cc1ccco1 (centres undefined),inactive,
COc1ccc(O)c(/C=N/NC(=O)CSc2nnc(C)n2-c2ccccc2)c1,"inconclusive: 12.6 µM [inhibitor, partial curve]",
CCOc1cccc(/C=N/NC(=S)Nc2cc(S(=O)(=O)N3CCOCC3)ccc2N2CCOCC2)c1O,"inconclusive: 11.2 µM [inhibitor, partial curve]",

SMILES,Potency,"activity change, negative = inhibition"
Cc1nn(-c2cccc(Cl)c2)c(Cl)c1/C=N/NC(=O)c1cccs1,inactive,
COc1cccc(N2CCN(CC(=O)Nc3nnc(-c4ccccc4)s3)CC2)c1,"inconclusive: 39.8 µM [inhibitor, partial curve, poor fit]",
O=C(NNC(=O)C1CCN(S(=O)(=O)c2c(Cl)cccc2Cl)CC1)c1ccccc1O,"inconclusive: 15.8 µM [inhibitor, partial curve, poor fit]",
CCn1c2c(c(=O)n3ncc(C(=O)Nc4ccc(F)c(Cl)c4)c13)CN(Cc1ccc(OC)cc1)CC2,inactive,
Cc1noc(C)c1S(=O)(=O)Nc1ccc(C(=O)N2CCN(c3cccc(Cl)c3)CC2)cc1,"inconclusive: 31.6 µM [inhibitor, single point]",
Cc1cccc(CCNC(=O)c2nc(-c3ccc(Cl)cc3)n3c2CCCCC3)c1,inactive,
COc1ccc(Br)cc1CNC(=O)c1cc2c(=O)n(C)c3ccccc3c2s1,inactive,
CC(Oc1ccc2ccccc2c1)C(=O)NNC(=S)NC(=O)c1ccco1 (centres undefined),"inconclusive: 25.1 µM [inhibitor, single point]",
COc1cc(NC(=O)COC(=O)/C=C/c2ccc(O)c(OC)c2)cc(OC)c1,"inconclusive: 0.423 µM [inhibitor, full curve, poor fit]",
CC(CCc1ccc(O)cc1)NC(c1ccccc1)c1ccc(Cl)cc1 (centres undefined),"inconclusive: 22.4 µM [inhibitor, single point]",
CCN(CC)C(=O)C1CCN(C(=O)c2cnn(-c3ccccc3)c2-n2cccc2)CC1,inactive,
O=C(Nc1ccccc1N1CCN(C(=O)c2ccc(Cl)cc2)CC1)c1ccc([N+](=O)[O-])o1,"inconclusive: 39.8 µM [inhibitor, single point]",
CCc1ccc(NC(=O)CCc2nc3cccnc3n2Cc2ccc(OC)cc2)cc1,"inconclusive: 25.1 µM [inhibitor, partial curve, poor fit]",
COc1cc(-c2cc3nc(NCc4cccc(Cl)c4)ccn3n2)cc(OC)c1OC,active: 12.6 µM,
O=C1NC(=O)/C(=C\c2ccc(OCc3cccc(C(=O)O)c3)c(Cl)c2)N1,"inconclusive: 9.47 µM [inhibitor, partial curve, poor fit]",
CCOC(=O)/C=c1\s/c(=C\c2ccc3cc(OC)ccc3c2)c(=O)n1CC(=O)NCC1CCCO1 (centres undefined),"inconclusive: 15.8 µM [inhibitor, partial curve, poor fit]",
Cn1cc(-c2cc3n(n2)CCC(=O)N3CCCC(=O)NCc2ccccc2)c2ccccc21,inactive,
COc1ccc(CNC(=O)CN(C)S(=O)(=O)c2ccc3[nH]c4c(c3c2)CCCC4)cc1,"inconclusive: 39.8 µM [inhibitor, single point]",
CC1CC(=O)c2c(cc3c(-c4c(O)cc(O)c5c(O)c6c(cc45)OC(C)CC6=O)c(O)cc(O)c3c2O)O1 (centres undefined),active: 20 µM,
CCOC(=O)C1CCC(CN(Cc2ccc(OC)cc2)S(=O)(=O)c2ccc(F)c(C(=O)Nc3cc(Cl)ccc3OC)c2)CC1 (centres undefined),inactive,
CC(C)c1ccc(NC(=O)c2cc(S(=O)(=O)NCCC3=CCCCC3)ccc2F)cc1,"inconclusive: 35.5 µM [inhibitor, single point]",
CCC(=O)OC1(C(C)=O)CCC2C3CCC4=CC(=O)CCC4(C)C3CCC21C (centres undefined),active: 20 µM,
CCOC(=O)c1c(C)[nH]c(C(=O)CN2C(=O)NC(C)(c3ccc4ccccc4c3)C2=O)c1C (centres undefined),inactive,
